Measurements as given in article PMC5515971, “Utility of spherical human liver microtissues for prediction of clinical drug-induced liver injury” (Archives of Toxicology, 2017).

Assays:
[1] = system: 3D human liver microtissues (hLiMT); test: Cytotoxicity (cellular ATP) in 3D human liver microtissues, 5-6 days treatment; type: cell-based; settings: ATP content, read-out: IC50 SHORT;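 also: Hanging-drop spheroids, seven-point dilution series, re-dosed on day 3, CellTiter-Glo 2.0 luminescence, normalized to 0.5 or 1% DMSO vehicle controls on the same plate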
[2] = system: 3D human liver microtissues (hLiMT); test: alpha-GST release into hLiMT supernatant (ELISA); type: cell-based; settings: 336 h, 14 days, release into medium, read-out: IC50 (α-GST assay)
Experimental: Supernatants from single hLiMT (in triplicates) were analysed for α-GST content using EKF’s α-GST ELISA assay. Briefly, 50 μL of the thawed cell-culture supernatants from single microtissues was transferred into a new v-bottom plate and diluted with 60 μl sample diluent buffer. From this dilution, 100 μL were transferred to the microassay strips. The ELISA was otherwise performed according to the manufacturer’s instructions.

[3] = system: primary human hepatocytes (PHH); test: Cytotoxicity (cellular ATP, CellTiter-Glo) in 2D plated primary human hepatocytes, 48 h treatment; type: cell-based; settings: for IC50: Hepatocyte, 2D primary human hepatocytes (lot IZT), 48 h treatment, total cellular ATP content, read-out: Geomean IC50;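 as to all read-outs here: 384-well plates, luminescence read-out, normalized to vehicle wells with 1% DMSO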
[4] = system: 3D human liver microtissues (hLiMT); test: Cytotoxicity (cellular ATP, CellTiter-Glo 2.0) in 3D human liver microtissues, 14 day repeat-dose treatment; settings: for IC50: Homo sapiens, Hepatocyte, 336 h, read-out: Geomean IC50 [µM]

IC50 [2] [µM]	Structure (SMILES)	IC50 [1] [µM]	IC50 [3] [µM]	classification at 100 μM IC50 threshold ([3]; PHH 48 h)	IC50 [4] [µM]	classification at 100 μM IC50 threshold ([4]; hLiMT 14 days)
45.7	CCCCc1oc2ccccc2c1C(=O)c1cc(I)c(OCCN(CC)CC)c(I)c1 [Amiodarone]	65.9	–	–	–	–
–	CN1[C@@H]2CC[C@H]1C[C@@H](OC(c1ccccc1)c1ccccc1)C2 [Benztropine]	–	27.8	false positives	~13.8	false positives
–	CN(C)CCCN1c2ccccc2CCc2ccc(Cl)cc21 [Clomipramine]	–	25.3	–	11.3	–
–	CNCCC(Oc1ccc(C(F)(F)F)cc1)c1ccccc1 (stereo not shown) [Fluoxetine]	–	16.5	–	11.3	–
–	Cc1ccccc1C(OCCN(C)C)c1ccccc1 (stereo not shown) [Orphenadrine]	–	80.5	–	> 100	–
–	CCN(CC)CC#CCOC(=O)C(O)(c1ccccc1)C1CCCCC1 (stereo not shown) [Oxybutynin]	–	> 10	–	> 10	–
–	CC/C(=C(\c1ccccc1)c1ccc(OCCN(C)C)cc1)c1ccccc1 [Tamoxifen]	3.6	–	–	2.5	–
